# Source: PubChem BioAssay (Tox21)
# Values joined by “and” are separate entries in the source; they are usually repeats but may differ in a detail not shown here. Equal entries are not always repeated. The inconclusive results got no clear call from the source; some entries with a clear call stand among them for comparison. For some of these results: Potencies beside an inconclusive call are fits to weak or partial responses and may not hold up. A structure can be active in one record and inactive in another. Active and inactive are the calls of the source. Unless noted, calls follow the shape of the dose curve; as a rule, active = well fitted curve in the direction sought with a large enough effect in the repeat runs; inconclusive = weak or mixed curves; inactive = no such curve, though single readings can be large; an effect the other way counts as inactive or inconclusive.
# Tests used:
# [1] = qHTS assay for identifying genotoxic compounds that show differential cytotoxicity against isogenic chicken DT40 cell lines with known DNA damage response pathways - wild type cell line (AID 743012); settings: DT40 wild type chicken cells viability, CellTiter-Glo, 40 h; activity change, negative = cytotoxicity: at 68.4 µM (top of the series) unless noted; also: nearly all actives have a fitted effect of over 60% in size; also: potency is read from the fitted curve at half-maximal effect; as to activity change, negative = cytotoxicity: % is scaled to controls: 0 for no effect and ±100 for the full control effect
# Procedure, shortened: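 Luminescent ATP viability signal (CellTiter-Glo, 30 min RT) recorded after wild type DT40 cells were incubated with compounds for 40 h at 37 C/5% CO2.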
# [2] = qHTS assay for identifying genotoxic compounds that show differential cytotoxicity against isogenic chicken DT40 cell lines with known DNA damage response pathways - Rev3 mutant cell line (AID 743014); settings: chicken DT40 Rev3-/- viability, CellTiter-Glo, 40 h; activity, negative = cytotoxicity: at 68.4 µM (top of the series); also: nearly all actives have a fitted effect of over 55% in size; also: potency is read from the fitted curve at half-maximal effect
# [3] = qHTS assay to identify small molecule antagonists of the androgen receptor (AR) signaling pathway - cell viability counter screen (AID 743033; also: nearly all actives have a fitted effect of over 45% in size; also: potency is read from the fitted curve at half-maximal effect); settings: AR-bla HEK293 viability, CellTiter-Glo luminescence, 16 h; activity change, negative = cytotoxicity: at 58.5 µM (top of the series) unless noted
# [4] = qHTS assay to identify small molecule antagonists of the thyroid receptor (TR) signaling pathway - cell viability counter screen (AID 743064); settings: GH3.TRE-Luc viability, CellTiter-Fluor, 24 h; activity change, negative = cytotoxic: at 70.3 µM (top of the series) unless noted; also: nearly all actives have a fitted effect of over 50% in size; also: potency is read from the fitted curve at half-maximal effect
# Procedure, shortened: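 CellTiter-Fluor readout, 30 min at 37 °C/5% CO2, following 23.5 h incubation of GH3.TRE-Luc cells with test compound and 1 nM T3 (final).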
# [5] = molecular target: Aromatase (Homo sapiens) (UniProt P11511); assay: qHTS assay to identify aromatase inhibitors (AID 743083); settings: MCF-7 aro ERE, testosterone-driven ERE luciferase, 24 h; activity, negative = inhibition: at 70.3 µM (top of the series); also: potency is read from the fitted curve at half-maximal effect; nearly all actives have a fitted effect of over 55% in size
# UniProt P11511, sequence (P11511 whole entry, looked up): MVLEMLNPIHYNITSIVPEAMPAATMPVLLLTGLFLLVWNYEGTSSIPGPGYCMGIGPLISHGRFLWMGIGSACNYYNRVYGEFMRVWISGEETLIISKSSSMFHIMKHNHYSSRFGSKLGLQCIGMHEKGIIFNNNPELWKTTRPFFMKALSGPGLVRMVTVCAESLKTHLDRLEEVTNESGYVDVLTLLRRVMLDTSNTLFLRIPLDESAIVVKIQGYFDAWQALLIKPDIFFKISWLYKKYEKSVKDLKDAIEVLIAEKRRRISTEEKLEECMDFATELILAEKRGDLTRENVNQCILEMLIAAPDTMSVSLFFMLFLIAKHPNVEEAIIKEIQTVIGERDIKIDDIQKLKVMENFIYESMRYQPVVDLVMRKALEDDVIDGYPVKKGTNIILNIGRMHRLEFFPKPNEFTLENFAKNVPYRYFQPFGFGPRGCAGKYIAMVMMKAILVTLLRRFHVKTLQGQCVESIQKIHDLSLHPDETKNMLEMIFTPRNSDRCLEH
# [6] = qHTS assay for identifying genotoxic compounds that show differential cytotoxicity against isogenic chicken DT40 cell lines with known DNA damage response pathways - Rad54/Ku70 mutant cell line (AID 743015); settings: DT40 Rad54/Ku70 mutant viability, CellTiter-Glo, 40 h; activity change, negative = cytotoxicity: at 66.8 µM (top of the series); also: potency is read from the fitted curve at half-maximal effect; nearly all actives have a fitted effect of over 60% in size
# [7] = qHTS assay to identify small molecule antagonists of the estrogen receptor alpha (ER-alpha) signaling pathway using the BG1 cell line - cell viability counter screen (AID 743081); settings: BG1Luc4E2 viability, CellTiter-Fluor, 22 h; activity change, negative = cytotoxicity: at 70.3 µM (top of the series) unless noted;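 also: compound given together with 17beta-estradiol as the ER stimulus; potency is read from the fitted curve at half-maximal effect; nearly all actives have a fitted effect of over 45% in size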
# [8] = qHTS assay to identify small molecule antagonists of the thyroid receptor (TR) signaling pathway (AID 743065); also: potency is read from the fitted curve at half-maximal effect; nearly all actives have a fitted effect of over 55% in size
# Procedure, shortened: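 GH3.TRE-Luc rat pituitary cells (two TREs driving luciferase) were dosed with compound, then stimulated with 1 nM T3 (final) for 23.5 h at 37 C. ONE-Glo luminescence was the read-out, with CellTiter-Fluor fluorescence as the cytotoxicity counter-screen.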
# [9] = qHTS assay to identify small molecule antagonists of the estrogen receptor alpha (ER-alpha) signaling pathway - cell viability counter screen (AID 743074; calls by dose curve; also: nearly all actives have a fitted effect of over 45% in size; also: potency is read from the fitted curve at half-maximal effect; as to activity, negative = cytotoxicity: % is scaled to controls: 0 for no effect and ±100 for the full control effect)
# [10] = qHTS assay to identify small molecule antagonists of the androgen receptor (AR) signaling pathway using the MDA cell line - cell viability counter screen (AID 743041; also: potency is read from the fitted curve at half-maximal effect; nearly all actives have a fitted effect of over 45% in size); settings: MDA-kb2 viability, CellTiter-Fluor, 16 h, cells co-treated with R1881 androgen agonist; viability change, negative = cytotoxic: at 70.3 µM (top of the series) unless noted
# Procedure, shortened: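 Compound exposure lasted 16 h at 37C in MDA-kb2 AR-luc cells stimulated with R1881. Protease-based CellTiter-Fluor reagent was applied for the final 30 min and fluorescence measured.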
# [11] = molecular target: Estrogen receptor (Homo sapiens) (UniProt P03372); assay: qHTS assay to identify small molecule antagonists of the estrogen receptor alpha (ER-alpha) signaling pathway (AID 743069; active = well fitted curve in the direction sought with a large enough effect in the signal ratio in the repeat runs, not every such curve was filed as active; inconclusive = weak or mixed curves, or effect the other way; inactive = no such curve, though single readings can be large or run the other way; the % refers to the signal ratio; also: potency is read from the fitted curve at half-maximal effect; as to activity, negative = inhibition: % is scaled to controls: 0 for no effect and ±100 for the full control effect); settings: HEK293 ER-alpha-UAS-bla, beta-lactamase ratio, antagonist mode; activity, negative = inhibition: at 69.4 µM (top of the series) unless noted
# UniProt P03372, sequence (P03372 whole entry, looked up): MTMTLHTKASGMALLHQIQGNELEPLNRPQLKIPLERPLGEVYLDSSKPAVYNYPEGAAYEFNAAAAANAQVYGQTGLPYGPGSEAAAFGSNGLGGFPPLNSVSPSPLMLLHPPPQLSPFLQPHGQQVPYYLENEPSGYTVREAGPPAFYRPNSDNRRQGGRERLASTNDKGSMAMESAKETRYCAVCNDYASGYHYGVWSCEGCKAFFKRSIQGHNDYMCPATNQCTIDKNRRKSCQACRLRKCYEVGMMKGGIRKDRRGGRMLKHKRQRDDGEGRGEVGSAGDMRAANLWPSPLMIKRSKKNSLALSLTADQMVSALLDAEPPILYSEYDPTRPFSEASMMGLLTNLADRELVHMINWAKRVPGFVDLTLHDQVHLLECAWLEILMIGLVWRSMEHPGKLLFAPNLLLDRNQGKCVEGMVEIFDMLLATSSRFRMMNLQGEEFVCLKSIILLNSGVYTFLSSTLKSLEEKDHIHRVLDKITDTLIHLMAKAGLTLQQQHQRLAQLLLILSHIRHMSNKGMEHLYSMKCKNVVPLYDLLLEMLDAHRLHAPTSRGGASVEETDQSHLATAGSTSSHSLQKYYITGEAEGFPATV
# Procedure, shortened: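 In this cell-based reporter format, GripTite HEK293 cells harbouring ER-alpha-UAS-bla were grown overnight with 2% charcoal-stripped FBS, dosed with DMSO-dissolved compounds, then challenged with 17beta-estradiol. After 18 hr at 37C, beta-lactamase activity was detected by FRET fluorescence.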
# [12] = molecular target: Estrogen receptor (Homo sapiens) (UniProt P03372); assay: qHTS assay to identify small molecule agonists of the estrogen receptor alpha (ER-alpha) signaling pathway using the BG1 cell line (AID 743079); settings: BG1Luc4E2 cells, ERE-luciferase agonist, 22 h; activation: at 70.3 µM (top of the series) unless noted; also: nearly all actives have a fitted effect of over 20% in size; also: potency is read from the fitted curve at half-maximal effect
# [13] = molecular target: Androgen receptor (Homo sapiens) (UniProt P10275); assay: qHTS assay to identify small molecule antagonists of the androgen receptor (AR) signaling pathway (AID 743035; active = well fitted inhibition curve with a large enough effect in the signal ratio in the repeat runs, not every such curve was filed as active; inconclusive = weak or mixed curves, or effect the other way; inactive = no such curve, though single readings can be large or run the other way; the % refers to the signal ratio; also: % is scaled to controls: 0 for no effect and ±100 for the full control effect); settings: HEK293 AR-UAS-bla, R1881-stimulated, beta-lactamase FRET, 16 h; activity change, negative = inhibition: at 58.5 µM (top of the series) unless noted
# UniProt P10275, sequence (P10275 whole entry, looked up): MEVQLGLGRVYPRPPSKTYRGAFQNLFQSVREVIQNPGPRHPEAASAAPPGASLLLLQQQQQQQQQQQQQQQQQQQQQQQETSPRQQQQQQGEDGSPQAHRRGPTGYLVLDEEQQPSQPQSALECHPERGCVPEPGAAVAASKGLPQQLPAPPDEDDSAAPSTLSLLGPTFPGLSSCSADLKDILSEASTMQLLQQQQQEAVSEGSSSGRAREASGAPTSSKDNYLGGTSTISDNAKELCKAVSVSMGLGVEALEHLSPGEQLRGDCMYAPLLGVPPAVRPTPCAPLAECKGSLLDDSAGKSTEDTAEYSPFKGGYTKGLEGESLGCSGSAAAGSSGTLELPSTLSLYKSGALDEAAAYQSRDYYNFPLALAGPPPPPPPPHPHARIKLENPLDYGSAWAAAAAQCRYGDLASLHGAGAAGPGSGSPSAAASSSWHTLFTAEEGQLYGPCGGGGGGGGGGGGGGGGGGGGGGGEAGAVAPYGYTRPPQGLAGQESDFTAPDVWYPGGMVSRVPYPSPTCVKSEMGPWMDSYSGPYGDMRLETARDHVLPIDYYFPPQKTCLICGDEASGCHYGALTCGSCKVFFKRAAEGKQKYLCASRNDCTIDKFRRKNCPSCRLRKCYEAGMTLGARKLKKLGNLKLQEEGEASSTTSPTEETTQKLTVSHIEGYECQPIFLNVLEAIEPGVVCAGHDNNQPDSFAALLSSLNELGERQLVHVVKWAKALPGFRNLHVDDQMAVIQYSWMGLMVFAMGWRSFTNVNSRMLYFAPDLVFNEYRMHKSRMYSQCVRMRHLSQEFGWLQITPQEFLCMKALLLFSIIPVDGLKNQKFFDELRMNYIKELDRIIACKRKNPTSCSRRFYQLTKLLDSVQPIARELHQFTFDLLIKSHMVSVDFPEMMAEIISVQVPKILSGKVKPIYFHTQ
# Procedure, shortened: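 Quantitative HTS of the Tox21 10K library used HEK293 AR-UAS-bla cells stimulated with R1881 alongside compound for 16 h at 37C, followed by beta-lactamase FRET detection (LiveBLAzer B/G, 2 h, RT).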
# [14] = system: thyroid hormone receptor (rat, GH3 cells); assay: qHTS assay to identify small molecule agonists of the thyroid receptor (TR) signaling pathway (AID 743066; calls by dose curve; also: potency is read from the fitted curve at half-maximal effect); settings: GH3.TRE-Luc cells, TR agonist luciferase, 24 h; activation: at 83.9 µM (top of the series) unless noted
# [15] = molecular target: Estrogen receptor (Homo sapiens) (UniProt P03372); assay: qHTS assay to identify small molecule agonists of the estrogen receptor alpha (ER-alpha) signaling pathway (AID 743075; calls by dose curve; also: potency is read from the fitted curve at half-maximal effect)
# [16] = molecular target: Androgen receptor (Homo sapiens) (UniProt P10275); assay: qHTS assay to identify small molecule agonists of the androgen receptor (AR) signaling pathway (AID 743036; active = well fitted activation curve with a large enough effect in the signal ratio in the repeat runs, with a control signal flat, not every such curve was filed as active; inconclusive = weak or mixed curves, or effect the other way; inactive = no such curve, though single readings can be large or run the other way; the % refers to the signal ratio; also: potency is read from the fitted curve at half-maximal effect); settings: HEK293 AR-UAS-bla GripTite, beta-lactamase FRET ratio, 16 h; activation: at 62.4 µM (top of the series) unless noted
# Procedure, shortened: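 Following a 4 h settling period, AR-UAS-bla HEK293 cells were dosed with compounds for 16 h at 37C. A 2 h room-temperature incubation with LiveBLAzer B/G FRET substrate preceded the fluorescence measurement.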
# Tags tell the direction and shape of the fitted curve or compound fluorescence and quenching.
smiles,measurement,setting,value
Nc1ccc(Cl)cc1Cl,Potency,[1],"inconclusive: 481 nM [rising, single point]"
same,Potency,[2],"inconclusive: 5.45 µM [cytotoxic, full curve, poor fit]"
same,Potency,[3],"inconclusive: 61.1 µM [cytotoxic, single point]"
same,Potency,[4],"inconclusive: 77 µM [rising, partial curve, poor fit]"
same,Potency,[5],"inconclusive: 67.9 µM [inhibitor, single point]"
C[Si](C)(CCCN)O[Si](C)(C)CCCN,Potency,[1],inactive
same,Potency,[2],"inconclusive: 24.3 µM [cytotoxic, full curve]"
same,Potency,[6],"inconclusive: 68.6 µM [cytotoxic, single point]"
same,Potency,[7],"inconclusive: 0.172 µM [rising, partial curve, poor fit]"
Cc1ccc(N=Nc2c(O)c(C(=O)O)cc3ccccc23)c(S(=O)(=O)O)c1,Potency,[1],"inconclusive: 18700 nM [cytotoxic, partial curve, poor fit]"
same,Potency,[2],"inconclusive: 33.3 µM [cytotoxic, single point]"
same,Potency,[8],"inconclusive: 33.3 µM [inhibitor, single point]"
same,Potency,[7],active: 16.7 µM
c1ccc(CNc2ncnc3nc[nH]c23)cc1,Potency,[1],"inconclusive: 68600 nM [cytotoxic, single point]"
same,Potency,[2],"inconclusive: 54.5 µM [cytotoxic, single point]"
same,Potency,[9],inactive
CO[C@@H]1[C@H](OC(=O)/C=C/C=C/C=C/C=C/C(=O)O)CC[C@]2(CO2)[C@H]1[C@@]1(C)O[C@@H]1CC=C(C)C,Potency,[1],active: 1.9 nM and active: 12.2 nM
same,Potency,[2],active: 2.1 nM and active: 17.2 nM
same,Potency,[3],"inconclusive: 0.19 µM [cytotoxic, full curve, poor fit]"
same,Potency,[10],"inconclusive: 68.6 µM [cytotoxic, partial curve, poor fit]"
same,Potency,[4],"inconclusive: 26.6 µM [cytotoxic, partial curve, poor fit]"
same,Potency,[8],"inconclusive: 42.2 µM [inhibitor, partial curve, poor fit] and inconclusive: 34.4 µM [inhibitor, partial curve, poor fit]"
same,"activity, negative = inhibition",[11],inconclusive: -32.4% and inconclusive: -20.7%
same,Potency,[9],"inactive and inconclusive: 24.5 µM [cytotoxic, full curve]"
same,activation,[12],inconclusive: 1.06% [phenotype inactive]
CCCCN(CCCC)C(=O)N(CCCC)CCCC,Potency,[1],"inconclusive: 24300 nM [cytotoxic, full curve]"
same,Potency,[2],inactive
same,Potency,[4],"inconclusive: 27.3 µM [cytotoxic, single point]"
same,Potency,[8],"inconclusive: 21.7 µM [inhibitor, partial curve]"
same,Potency,[9],inactive
same,Potency,[5],"inconclusive: 17.2 µM [inhibitor, full curve]"
OCCC(F)(F)C(F)(F)C(F)(F)C(F)(F)C(F)(F)C(F)(F)C(F)(F)C(F)(F)F,Potency,[1],inactive
same,Potency,[2],inactive
same,"activity change, negative = inhibition",[13],inconclusive: 21.1%
same,Potency,[4],inactive
same,Potency,[11],inconclusive: 61.6 µM [activator]
CCC1=C[C@@H]2CN(C1)Cc1c([nH]c3ccccc13)[C@@](C(=O)OC)(c1cc3c(cc1OC)N(C)[C@H]1[C@@](O)(C(=O)OC)[C@H](OC(C)=O)[C@]4(CC)C=CCN5CC[C@]31[C@@H]54)C2,Potency,[1],active: 75 nM
same,Potency,[2],active: 0.0841 µM
same,activation,[14],inconclusive: -8.64% [phenotype inactive]
same,Potency,[11],"inconclusive: 13.4 µM [cytotoxic, partial curve, poor fit]"
same,Potency,[15],"inconclusive: 1.9 µM [falling, full curve]"
same,Potency,[12],"inconclusive: 4.22 µM [inhibitor, partial curve, poor fit]"
same,Potency,[7],"inconclusive: 33.5 µM [cytotoxic, single point]"
C1CNCCN1,Potency,[1],"inconclusive: 8.8 nM [rising, full curve, poor fit]"
same,Potency,[6],"inconclusive: 21.5 µM [cytotoxic, partial curve]"
same,Potency,[14],"inconclusive: 7.92 µM [activator, full curve, poor fit]"
same,Potency,[9],"inconclusive: 6.01 µM [cytotoxic, full curve]"
same,Potency,[12],"inconclusive: 5 µM [inhibitor, partial curve, poor fit]"
same,Potency,[7],"inconclusive: 33.5 µM [rising, single point]"
CC1=NN(c2ccc(C(=O)O)cc2)C(=O)C1,Potency,[1],inactive
same,Potency,[3],inactive
same,"activity change, negative = inhibition",[13],inconclusive: 16.9%
same,Potency,[16],inconclusive: 61.6 µM
same,Potency,[4],inactive
same,activation,[14],inconclusive: 0.719% [phenotype inactive]
